Experimental findings from the GPR68 mutational scans of Howard et al. (2025) are described below.

Scores with a large standard error are left out. Not listed are two conditions whose scores span a narrow range. In variant names, del marks residues removed and ins residues inserted between the two positions. For some of these results: How much ogerin was present is not stated here.

To fix the notation:
B1: GPR68, Q15743 (parent)
chain: MGNITADNSSMSCTIDHTIHQTLAPVVYVTVLVVGFPANCLSLYFGYLQIKARNELGVYLCNLTVADLFYICSLPFWLQYVLQHDNWSHGDLSCQVCGILLYENIYISVGFLCCISVDRYLAVAHPFRFHQFRTLKAAVGVSVVIWAKELLTSIYFLMHEEVIEDENQHRVCFEHYPIQAWQRAINYYRFLVGFLFPICLLLASYQGILRAVRRSHGTQKSRKDQIQRLVLSTVVIFLACFLPYHVLLLVRSVWEASCDFAKGVFNAYHFSLLLTSFNCVADPVLYCFVSETTHRDLARLRGACLAFLTCSRTGRAREAYPLGAPEASGKSGAQGEEPELLTKLHPAFQTPNSPGSGGFPTGRLA

Series [1] covers variants of B1. The series is described as follows: cAMP reporter score (Enrich2 score, wild type = 0); higher = more signal; HEK293T, FACS bins.
Variants of B1 are the subject of series [2]. Nature of the series: surface expression score (Enrich2 score, wild type = 0); higher = more signal; HEK293T, FACS bins.

Regarding N62_L63insG, the cAMP reporter score in series [1] (pH 5.5) is -1.44; in series [1] (pH 6), -0.77; in series [1] (pH 6, modulator: ogerin), -1.3; in series [1] (pH 6.5, modulator: ogerin) it was -1.52. Also, the surface expression score in series [2] is -1.8.
For V58_Y59insG, in that order: -1.61, -1.13, -0.953, -0.587 and -2.55.
Consider V58R, for which the cAMP reporter score in series [1] (pH 5.5) is -1.63; in series [1] (pH 6) it was -0.904; in series [1] (pH 6, modulator: ogerin), -1.97; in series [1] (pH 6.5, modulator: ogerin) it was -1.12. The surface expression score in series [2] is -2.04.
As for V58P, the cAMP reporter score was -1.2 in series [1] (pH 5.5); -0.928 in series [1] (pH 6); -2.2 in series [1] (pH 6, modulator: ogerin); -0.764 in series [1] (pH 6.5, modulator: ogerin). In series [2], the surface expression score was -2.98.
With V58M, the cAMP reporter score in series [1] (pH 5.5) is -0.675; in series [1] (pH 6), -0.566; in series [1] (pH 6, modulator: ogerin) it was -0.741; in series [1] (pH 6.5, modulator: ogerin), -0.627. In series [2], the surface expression score was -1.01.
In the case of V58H, the cAMP reporter score in series [1] (pH 5.5) was -1.64; in series [1] (pH 6) it was -0.63; in series [1] (pH 6, modulator: ogerin) it was -1.19; in series [1] (pH 6.5, modulator: ogerin), -1.02. In addition, the surface expression score in series [2] was -3.21.
For V58D, in that order: -1.49, -0.294, -1.28, -1.31 and -2.15.
For V58K, in that order: -1.21, -0.949, -1.45, -0.66 and -2.67.
In the case of V58Q, the cAMP reporter score was -1.67 in series [1] (pH 5.5); -0.866 in series [1] (pH 6); -1.15 in series [1] (pH 6, modulator: ogerin); -0.757 in series [1] (pH 6.5, modulator: ogerin). Moreover, in series [2], the surface expression score was -2.02.
Take V58L: the cAMP reporter score was -1.45 in series [1] (pH 5.5); -0.962 in series [1] (pH 6, modulator: ogerin); -1.41 in series [1] (pH 6.5, modulator: ogerin).
Regarding V58S, the cAMP reporter score was -2.02 in series [1] (pH 5.5); -0.759 in series [1] (pH 6); -1.94 in series [1] (pH 6, modulator: ogerin); -1.41 in series [1] (pH 6.5, modulator: ogerin). For the same variant, the surface expression score in series [2] is -1.89.
On to V58N, for which the cAMP reporter score in series [1] (pH 5.5) is -1.02; in series [1] (pH 6.5, modulator: ogerin) it was -1.58. The surface expression score in series [2] is -1.9.
On to V58T, for which the cAMP reporter score was -1.72 in series [1] (pH 5.5); -1.43 in series [1] (pH 6); -1.62 in series [1] (pH 6, modulator: ogerin); -1.46 in series [1] (pH 6.5, modulator: ogerin). In addition, in series [2], the surface expression score was -2.5.
With V58Y, the cAMP reporter score in series [1] (pH 5.5) is -0.582; in series [1] (pH 6) it was -1.05; in series [1] (pH 6, modulator: ogerin), -0.379; in series [1] (pH 6.5, modulator: ogerin), -0.881. In addition, in series [2], the surface expression score was -3.23.
Turning to V58G, the cAMP reporter score is -1.29 in series [1] (pH 5.5); -1.01 in series [1] (pH 6); -2.03 in series [1] (pH 6, modulator: ogerin); -1.54 in series [1] (pH 6.5, modulator: ogerin). Besides, the surface expression score in series [2] is -2.38.
Consider V58E, for which the cAMP reporter score in series [1] (pH 5.5) is -1.06; in series [1] (pH 6, modulator: ogerin) it was -2.2; in series [1] (pH 6.5, modulator: ogerin), -1.42. Besides, the surface expression score in series [2] was -1.6.
As for V58A, the cAMP reporter score is -1.26 in series [1] (pH 5.5); -0.531 in series [1] (pH 6); -0.935 in series [1] (pH 6, modulator: ogerin). In addition, the surface expression score in series [2] was -2.89.
As to V58W, the cAMP reporter score is -0.365 in series [1] (pH 5.5) and 0.865 in series [1] (pH 6, modulator: ogerin). The surface expression score in series [2] was -0.211.
In the case of V58C, the cAMP reporter score was -1.4 in series [1] (pH 5.5); -0.924 in series [1] (pH 6); -0.672 in series [1] (pH 6, modulator: ogerin); -0.281 in series [1] (pH 6.5, modulator: ogerin). In addition, the surface expression score in series [2] is -2.17.
For V58I, the cAMP reporter score in series [1] (pH 5.5) is -0.817; in series [1] (pH 6), -0.54; in series [1] (pH 6, modulator: ogerin) it was -0.815; in series [1] (pH 6.5, modulator: ogerin), -0.547. For the same variant, the surface expression score in series [2] is -0.564.
On to T64_V65insGSG, for which the cAMP reporter score is -0.512 in series [1] (pH 5.5); 0.381 in series [1] (pH 6); -1.11 in series [1] (pH 6.5, modulator: ogerin). Further, the surface expression score in series [2] was -3.44.
In the case of N54del, the cAMP reporter score is -1.21 in series [1] (pH 5.5); -0.642 in series [1] (pH 6); -0.984 in series [1] (pH 6, modulator: ogerin); -0.626 in series [1] (pH 6.5, modulator: ogerin). The surface expression score in series [2] was -2.32.
For L56del, in that order: -1.5, -0.674, -1.48, -1.68 and -2.62.
R53_N54insGS: the cAMP reporter score in series [1] (pH 5.5) was -1.17; in series [1] (pH 6) it was -1.06; in series [1] (pH 6, modulator: ogerin), -2.09; in series [1] (pH 6.5, modulator: ogerin), -0.905. Moreover, the surface expression score in series [2] was -2.52.
For the variant T64_V65insG, the cAMP reporter score in series [1] (pH 5.5) is -2.13; in series [1] (pH 6), -1.28; in series [1] (pH 6, modulator: ogerin), -1.45; in series [1] (pH 6.5, modulator: ogerin) it was -0.678. Moreover, the surface expression score in series [2] is -2.51.
On to V65del, for which the cAMP reporter score is -2.05 in series [1] (pH 5.5); -0.985 in series [1] (pH 6); -2.15 in series [1] (pH 6, modulator: ogerin); -0.413 in series [1] (pH 6.5, modulator: ogerin). The surface expression score in series [2] was -2.98.
In the same order, the values of Y59_C61del are -1.46, -0.636, -2.54, -1.29 and -2.67.
For N62_L63insGSG, in that order: -1.01, -1.52, -0.85, -0.248 and -2.4.
In the case of V65_D67del, the cAMP reporter score in series [1] (pH 5.5) is -1.06; in series [1] (pH 6), -0.713; in series [1] (pH 6, modulator: ogerin) it was -1.37; in series [1] (pH 6.5, modulator: ogerin), -0.876. In addition, the surface expression score in series [2] was -2.19.
Turning to G57_V58insGS, the cAMP reporter score is -0.716 in series [1] (pH 5.5); -1.51 in series [1] (pH 6); -1.04 in series [1] (pH 6, modulator: ogerin); -0.895 in series [1] (pH 6.5, modulator: ogerin). In addition, the surface expression score in series [2] is -2.31.
With A66I, the cAMP reporter score in series [1] (pH 5.5) was -1.2; in series [1] (pH 6), -0.204; in series [1] (pH 6.5, modulator: ogerin), -0.564. For the same variant, the surface expression score in series [2] worked out at 1.78.
